Assay results from publication PMC4336329 (PLoS ONE, 2015).
Among all 310,000 compounds or so, about 14,000 (4.5%) showed an effect of 50% or more. The effect is printed as a negative number. This is one part of the list.

Molecular target: human ether-à-go-go-related gene (hERG) potassium channel (human, UniProt Q12809)
Assay: primary screen, population patch clamp on CHO cells stably expressing hERG
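Further: peak tail current of the secondary pulse compared with the same well before compound.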

Chain of human ether-à-go-go-related gene (hERG) potassium channel (Q12809 whole entry, looked up): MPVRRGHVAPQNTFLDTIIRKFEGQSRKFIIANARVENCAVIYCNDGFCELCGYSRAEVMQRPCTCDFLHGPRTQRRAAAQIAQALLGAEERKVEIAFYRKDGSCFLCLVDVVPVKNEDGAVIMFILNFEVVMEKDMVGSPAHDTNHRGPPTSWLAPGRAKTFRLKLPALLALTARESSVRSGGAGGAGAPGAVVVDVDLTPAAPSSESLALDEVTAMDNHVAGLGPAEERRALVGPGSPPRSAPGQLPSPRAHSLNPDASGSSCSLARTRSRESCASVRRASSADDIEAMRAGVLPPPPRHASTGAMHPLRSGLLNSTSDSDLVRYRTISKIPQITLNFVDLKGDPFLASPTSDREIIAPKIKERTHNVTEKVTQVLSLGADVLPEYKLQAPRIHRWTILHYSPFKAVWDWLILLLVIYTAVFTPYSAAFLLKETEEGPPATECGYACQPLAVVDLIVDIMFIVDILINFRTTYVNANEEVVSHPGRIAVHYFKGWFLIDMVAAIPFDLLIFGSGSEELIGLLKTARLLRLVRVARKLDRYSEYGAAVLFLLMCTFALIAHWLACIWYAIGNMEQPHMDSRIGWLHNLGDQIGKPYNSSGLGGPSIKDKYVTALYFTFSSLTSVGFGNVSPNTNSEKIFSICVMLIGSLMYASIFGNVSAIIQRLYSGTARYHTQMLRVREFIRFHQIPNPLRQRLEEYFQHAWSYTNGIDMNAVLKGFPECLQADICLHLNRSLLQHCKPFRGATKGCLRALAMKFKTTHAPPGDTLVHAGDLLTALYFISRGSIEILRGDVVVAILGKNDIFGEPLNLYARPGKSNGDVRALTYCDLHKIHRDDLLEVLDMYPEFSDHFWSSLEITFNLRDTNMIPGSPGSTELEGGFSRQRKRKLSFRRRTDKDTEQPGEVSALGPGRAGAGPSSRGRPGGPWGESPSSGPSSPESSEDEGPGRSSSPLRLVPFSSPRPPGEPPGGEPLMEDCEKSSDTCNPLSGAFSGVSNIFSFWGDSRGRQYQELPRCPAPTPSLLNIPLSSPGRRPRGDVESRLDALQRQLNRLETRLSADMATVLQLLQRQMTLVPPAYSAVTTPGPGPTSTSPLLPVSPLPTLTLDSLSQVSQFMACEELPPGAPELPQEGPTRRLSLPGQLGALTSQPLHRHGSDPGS

| Structure (SMILES) | hERG current change (%, negative = inhibition) at 10uM [%] |
| --- | --- |
| C=CCn1c(SCc2nnc(-c3ccccc3)o2)nnc1C(O)c1ccccc1 (stereo not shown) | -1.3 |
| COCCN(C(=S)Nc1cccc(OC)c1)C1CCN(C(C)C)CC1 | -16.7 |
| Cc1cc(C)c2oc(C(=O)NCCc3ccc(S(N)(=O)=O)cc3)cc(=O)c2c1 | 19.3 |
| COc1ccc(C(=O)COC(=O)/C=C/c2ccco2)cc1F | -22.6 |
| Cc1sc2ncnc(N3CCN(CCOc4ccc(Cl)cc4)CC3)c2c1C | -9.02 |
| CCOC(=O)C1CCN(S(=O)(=O)c2ccc(C(C)=O)cc2)CC1 | -23.9 |
| OC(Cc1nc2ccccc2[nH]1)c1ccccc1Cl (stereo not shown) | -4 |
| CC(NO)C(C)(C)NO.Cl (stereo not shown) | 14.8 |
| CSCCc1nc(SCC(=O)Nc2nnc(C)s2)[nH]c1C | 16.4 |
| COc1ccc(-c2c(C)nn3c(N4CCOCC4)cc(C)nc23)cc1OC | 6.87 |
| S=C(NCc1ccc(Cl)cc1)NCc1ccccn1 | 8.36 |
| CCOC(=O)CN1C(=O)Nc2ccc(Br)cc2C1c1ccccc1 (stereo not shown) | -56.7 |
| CC(C)N(Cc1ccccc1)C(=S)Nc1cccnc1 | 19.4 |
| COc1ccc(C2CC(c3cc(OC)ccc3OC)n3nnnc3N2)cc1 (stereo not shown) | -7.19 |
| COc1cc(NS(=O)(=O)c2ccc(NS(=O)(=O)c3ccc(C)cc3)cc2)nc(OC)n1 | 25.4 |
| CC(C)(C)C(=O)COC(=O)CNC(=O)c1ccc(Oc2ccccc2)cc1 | -6.73 |
| COc1ccc(OC)c(NC(=O)CSc2nnc(CNC(=O)c3ccco3)o2)c1 | 8.54 |
| CC(C)[C@H](NS(=O)(=O)c1ccc2c(c1)OCCO2)C(=O)OCC(=O)Nc1ccccc1 | -12 |
| CCCc1cc(=O)[nH]c(SCc2ccc(Cl)cc2)n1 | 6.26 |
| Cc1cccc(Nc2ncnc3ccc(Br)cc23)c1 | -33.1 |
| CCOC(=O)C1CCN(C(=O)c2cc3c(=O)n4ccccc4nc3n2C)CC1 | -7.87 |
| O=C(COC(=O)/C=C/c1ccccc1)Nc1cc(C(F)(F)F)ccc1N1CCOCC1 | 6.85 |
| Cc1cccc(NC(=O)Cn2c(=O)n(CC3CCCO3)c(=O)c3ccccc32)c1 (stereo not shown) | 97.9 |
| CCN(CCCNC(=O)CNC(=O)c1nn(-c2ccc(OC)c(OC)c2)c(=O)c2ccccc12)c1ccccc1 | -34.3 |
| O=C(c1ccco1)N1CCN(c2nc3ccsc3c(=O)s2)CC1 | -79 |
